To fix the notation:
B1: CPEB3 Ribozyme (parent)
chain: UAACAGGGGGCCACAGCAGAAGCGUUCACGUCGCAGCCCCUGUCAGAUUCUGGUGAAUCUGCGAAUUCUGCUGUAUAUCUC

Drawing on the RNAGym collection of RNA variant scans (doi:10.1093/nar/gkz1192), this text covers self-cleavage for 34 variants.

The source gives no read counts; variants with many changes may rest on few reads.

Variants of B1 are the subject of this data set. The experiment in a line: self-cleavage, relative activity (ratio to wild type); higher = more cleavage; in vitro, sequencing. Put shortly:
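Relative activity compares each variant's cleaved/total read fraction with that of the unmutated ribozyme. To get these fractions, barcoded CPEB3 ribozyme libraries from rounds of error-prone PCR were transcribed with T7 RNA polymerase for 5 hours at 37°C and then given 15 min of DNase I treatment before EDTA was added. The RNAs were reverse transcribed with template switching and sequenced on Illumina, and DNA sequencing linked barcodes to variants. A minimum of 5 reads applied, and three batches were averaged.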
On to UAACAGGGGGCCACAGCAGAAGCGUUCACGUCGCGGCCCCUGUCAGAUUCUGGUGAAUCUGCGAAUCCCGCUGUAUAUCUC [A35G U67C U69C], for which the self-cleavage came to 0.46.

With UAACAGGGGGCCACAGCAGAAGCGUUCACGUCGCUGCCCCUGUCAGAUUCUGGUGAUUCUGCGCAUUCUGCUGUAUAUCUC [A35U A57U A64C], the self-cleavage was 0.07.

UAACAGGGGGCCACAGCAGAAGCGUUCACGUCGCGGCCCCUGUCAGAUUCUGGUGAAUCAGCGUAUUCUGCUGUAUAUCUC [A35G U60A A64U]: the self-cleavage amounted to 0.44.

In the case of UAACAGGGGGCCACAGCAGAAGCGUUCACGUCGCUGCCCCUGUCAGAUUCUGGUGUACCUGCGAAUUCUGCCGUAUAUCUC [A35U A56U U58C U72C], the self-cleavage stood at 0.12.

As for UAACAGGGGGCCACAGCAGAAGCGUUCACGUCGCUGCCCCUGUCGGAUACUGGUGAAUCUGCGAAUACUGCUGUAUACCUC [A35U A45G U49A U67A U78C], the self-cleavage worked out at 0.09.

Take UAACAGGGGGCCACAGCAGAAGCGUUCACGUCGCUGCCCCUGCCAGAUCCUGGUGAAUCUGCGUAUUCUGCUGUAUAUCUC [A35U U43C U49C A64U]: the self-cleavage was 0.08.

Turning to UAACAGGGGGCCACAGCAGAAGCGUUCACGUCGCUGCCCCUGUCGGACUCUGGUGAAUCUGUGAAUUCUGCUGUAUGUCUC [A35U A45G U48C C62U A77G], the self-cleavage worked out at 0.08.

On to UAACAGGGGGCCACAGCAGAAGCGUUCACGUCGCUGCCCCGGUCAGAUCCUGGUGAAUCGGCGAGUUCUGCUGUACAUCCC [A35U U41G U49C U60G A65G U76C U80C], for which the self-cleavage is 0.12.

Consider UAACAGGGGGCCACAGCAGAAGCGUUCACGUCGCUGCCCCUGCCAGAUUCUGGCGAAUCUGCGUAUCCUGCUGUAUAUCUC [A35U U43C U54C A64U U67C], for which the self-cleavage was determined as 0.15.

Regarding UAACAGGGGGCCACAGCAGAAGCGUUCACGUCGCUGCCCCUGUCAGACUCUGGUGAAUCUGGGAAUUCUGCUGUAUAUCUC [A35U U48C C62G], the self-cleavage came to 0.11.

As to UAACAGGGGGCCACAGCAGAAGCGUUCACGUCGCUGCCCCUGUCAGACUCUGGUGAAUCUGCGGAUUCUGCUGAAUAUCUC [A35U U48C A64G U74A], the self-cleavage was found to be 0.15.

As to UAACAGGGGGCCACAGCAGAAGCGUUCACGUCGCUGCCCCAGUCAGAUUCUGGUGAAUCUGCGGAUUCUGCUGUAUAUCUC [A35U U41A A64G], the self-cleavage is 0.32.

On to UAACAGGGGGCCACAGCAGAAGCGUUCACGUCGCUGCGCCUGUCAGACCCAGGUGAACCUGCGAAUUCUGCUCUAUAUCUC [A35U C38G U48C U49C U51A U58C G73C], for which the self-cleavage was determined as 0.05.

Turning to UAACAGGGGGCCACAGCAGAAGCGUUCACGUCGCUGCCCCUGUAAGAUUCUGGUGAACCUGCGAAUUCUGCUGUAUAUCUA [A35U C44A U58C C81A], the self-cleavage worked out at 0.13.

Consider UAACAGGGGGCCACAGCAGAAGCGUUCACGUCGCUGCCCCUGCCAGAUUCUGGUGAAUCUGCGUAUUCUGCUGUAUAUCUC [A35U U43C A64U], for which the self-cleavage amounted to 0.33.

Regarding UAACAGGGGGCCACAGCAGAAGCGUUCACGUCGCUGCCCCCGUCUGAUUCUGGUGAACCUGCGAAUUCUGCUGUAUAUCUC [A35U U41C A45U U58C], the self-cleavage was 0.13.

Take UAACAGGGGGCCACAGCAGAAGCGUUCACGUCGCUGCCCCUGUCUGAUUCUGGUGAAGCUGCGAAUUCUGCUGUAUAUCUC [A35U A45U U58G]: the self-cleavage worked out at 0.08.

For UAACAGGGGGCCACAGCAGAAGCGUUCACGUCGCUGCCCCUGUCGGAUUCUGGUGAAUCAGCGAAUUCUGCUGUAUAUCUC [A35U A45G U60A], the self-cleavage is 0.14.

As for UAACAGGGGGCCACAGCAGAAGCGUUCACGUCGCUGCCCCUGUCAGAUUCUGGUGAAUCUGCGUAUUCUGCUGCAUAUCUC [A35U A64U U74C], the self-cleavage was 0.21.

In the case of UAACAGGGGGCCACAGCAGAAGCGUUCACGUCGCUCCCCCUGUCAGAUUCUGGUGAAUAUGCGAAUUCUGCUGUAUAUCUC [A35U G36C C59A], the self-cleavage amounted to 0.17.

In the case of UAACAGGGGGCCACAGCAGAAGCGUUCACGUCGCUGCCCCAGUUAGAUUCUGGUGAAUCUGCGAGUUCUGCUGUAUCACUC [A35U U41A C44U A65G A77C U78A], the self-cleavage is 0.1.

Regarding UAACAGGGGGCCACAGCAGAAGCGUUCACGUCGCUGCCCCUGUCAGGUUCUGGUGAAUCUGCGAAUUCCGCCGCGUAUCUC [A35U A47G U69C U72C U74C A75G], the self-cleavage is 0.14.

As to UAACAGGGGGCCACAGCAGAAGCGUUCACGUCGCUGCCCCUGCCAGACUCUGGUGAAUCUGCGGAUUCUGCUGUAUAUCUC [A35U U43C U48C A64G], the self-cleavage worked out at 0.23.

Regarding UAACAGGGGGCCACAGCAGAAGCGUUCACGUCGCGGCCCCUGUCAGAUUCUGGUGAAUCCGCGAAUUCAGCUGUAUAUCUC [A35G U60C U69A], the self-cleavage is 0.87.

For the variant UAACAGGGGGCCACAGCAGAAGCGUUCACGUCGCUGCCCCUGUCAGACUCUGGUGGAUCCACGAAUUCUGCUGUAUAUCUC [A35U U48C A56G U60C G61A], the self-cleavage is 0.07.

Take UAACAGGGGGCCACAGCAGAAGCGUUCACGUCGCGGCCCCUGUCAGAUUCUGGUGAAUCUGCGAACUCUGCUGUAUAUCAC [A35G U66C U80A]: the self-cleavage was found to be 1.25.

As to UAACAGGGGGCCACAGCAGAAGCGUUCACGUCGCGGCCCCUGUCAGAUUCUGGUGAAUCUGCGAAUACUGCUGUAUAGCUC [A35G U67A U78G], the self-cleavage stood at 1.27.

Regarding UAACAGGGGGCCACAGCAGAAGCGUUCACGUCGCUGCCCCAGUCAGAUUCUGGUGAAUCUGCGAAAUCCGCUGUAUAUCUC [A35U U41A U66A U69C], the self-cleavage worked out at 0.06.

As for UAACAGGGGGCCACAGCAGAAGCGUUCACGUCGCGGCCCCUGUCAGAUUCUGGUGAACCUGCGAAUUCUGCUGUAUAACUC [A35G U58C U78A], the self-cleavage worked out at 1.25.

Take UAACAGGGGGCCACAGCAGAAGCGUUCACGUCGCGGCCCCUGUCAGAUUCUGGUGAAUCUGCGAAUACAGCUGUAUAUCUC [A35G U67A U69A]: the self-cleavage is 0.45.

UAACAGGGGGCCACAGCAGAAGCGUUCACGUCGCUGCCCCUGUCAGAUUCUGGUGGAUCUGCGAAUUCUGCUGUAUAUCCC [A35U A56G U80C]: the self-cleavage was found to be 0.65.

Regarding UAACAGGGGGCCACAGCAGAAGCGUUCACGUCGCUGCCCCUGUCAGAUUCUGGUGAAUCUGCGUAUUCCGCUGUUUAUCCC [A35U A64U U69C A75U U80C], the self-cleavage turned out to be 0.07.

With UAACAGGGGGCCACAGCAGAAGCGUUCACGUCGCUGCCCCUGUCAGAUUCUGGUGAAUCUGCGUACUCUGCUGUAUAUCAC [A35U A64U U66C U80A], the self-cleavage came out at 0.1.

For the variant UAACAGGGGGCCACAGCAGAAGCGUUCACGUCGCUGCACCUGUCAGAUUCUGGUGAAUCUGCGAAUUCUGCUGUACUUCUC [A35U C38A U76C A77U], the self-cleavage amounted to 0.06.
